In PubChem BioAssay AID624418 (National Center for Advancing Translational Sciences (NCATS), 2012):
The campaign covered roughly 410,000 compounds. About 530 (0.13%) were called active. Inconclusive results, whose numbers are uncertain, are shown with a selection of clear calls. Calls come from the whole dose curve; as a rule, active = well fitted inhibition curve with a large enough effect; inconclusive = small, poorly fitted or top-dose-only effect, or another doubt; inactive = no such curve, though single readings can be large or run the other way. A potency beside an inconclusive call is a rough fit, not a confirmed value.

Experiment: qHTS of GLP-1 Receptor Inverse Agonists: Cytotox Screen
Conditions: HEK293 cAMP-luciferase reporter cells, luminescence, 24 h; activity change, negative = inhibition: at 38.3 µM (top of the series) unless noted
How it was run: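 Compound-treated cells are incubated 24 hr at 37 deg C under 5% CO2 after a 12 hour attachment period, then luciferase detection reagent is added and luminescence is measured following 12 min at room temperature; lowered signal indicates toxicity.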
% is set by controls: 0 for no effect and ±100 for the full control effect; potency is the fitted concentration of half-maximal effect.

Structure (SMILES)	Potency	activity change, negative = inhibition
Cc1ccc(/C(N)=N/OC(=O)c2ccc(F)cc2)cc1	inactive	
O=C1/C(=C/c2ccncc2)CCC/C1=C\c1ccncc1	inconclusive: 5.62 µM [inhibitor, partial curve]	
Cc1ccc(C(=O)NC(=S)Nc2ccccc2C)cc1	inconclusive: 28.2 µM [inhibitor, single point]	
CC(C)Nc1nc(NC(C)C)nc(N(C)N)n1	inconclusive: 12.6 µM [inhibitor, single point]	
Cc1ccc(SCCNC(=S)Nc2cc(C)ccc2C)cc1	inconclusive: 22.4 µM [inhibitor, partial curve, poor fit]	
O=S1(=O)N[C@@H](Cc2ccccc2)COc2cccc(N3CCC[C@@H]3CO)c21	inactive	
CCOC(=O)N1CCc2c(sc3c2c(=O)n(Cc2ccccc2)c(=O)n3Cc2cc(C)ccc2C)C1	inactive	
O=C(CSc1ccccn1)N1CCN(c2cccc(Cl)c2)CC1	inconclusive: 3.16 µM [inhibitor, full curve, poor fit]	
Oc1c(C=C2N=c3ccccc3=N2)sc(=S)n1-c1ccc(F)cc1	inconclusive: 7.08 µM [inhibitor, partial curve, poor fit]	
CC1CCN(C(=O)CSc2nnc(-c3ccc(S(=O)(=O)N4CCOCC4)cc3)n2C)CC1	inactive	
CCc1ccc(C(=O)NC(=S)Nc2ccc3c(c2)OCCO3)cc1	inconclusive: 10 µM [inhibitor, single point]	
COC(=O)CN1C(c2ccc(OC)cc2)=Nc2ccc(Cl)cc2C1c1ccccc1 (centres undefined)	inconclusive: 10 µM [inhibitor, partial curve, poor fit]	
Cc1c(N=Nc2ccc(N(C)C)cc2)c(=O)n(-c2ccccc2)n1C	inconclusive: 10 µM [inhibitor, partial curve, poor fit]	
CN1CCN(C(=O)CCCN2C(=O)/C(=C/c3ccccc3)SC2=S)CC1	inconclusive: 11.2 µM [inhibitor, partial curve, poor fit]	
CCc1nnc(NS(=O)(=O)c2ccc(NC(=S)NC(=O)/C=C/c3ccc(OC)cc3)cc2)s1	inactive	
O=C(CSc1ccc(-c2ccccc2)nn1)c1ccccc1	inactive	
Cc1ccsc1/C=N/Nc1nc(=O)[nH]nc1C	inconclusive: 2.51 µM [inhibitor, full curve]	
CCN(CC)CCN(C(=O)c1cc2c(ccc3ccccc32)oc1=O)c1nc2cc3c(cc2s1)OCCO3	inconclusive: 22.4 µM [inhibitor, single point]	
OC(c1cc(C(F)(F)F)nc2c(Cl)cc(Cl)cc12)C1CCCCN1 (centres undefined)	inconclusive: 28.2 µM [inhibitor, single point]	
O=C(Cc1ccccc1)NCCn1ccc2ccccc21	inactive	
CCOc1cc(CNCCc2ccc(S(N)(=O)=O)cc2)cc(Cl)c1OCc1ccccc1	inconclusive: 31.6 µM [inhibitor, single point]	
O=c1oc2cc(O)ccc2c2oc3cc(O)ccc3c12	inactive	

Structure (SMILES)	Potency	activity change, negative = inhibition
Nc1c2c(nc3ccccc13)N(c1ccccc1)CC2	inconclusive: 28.2 µM [inhibitor, single point]	
Cc1noc(/C=C/c2cccs2)c1S(=O)(=O)N1CCC(C(=O)NCCCN2CCCC(C)C2)CC1 (centres undefined)	inconclusive: 8.91 µM [inhibitor, partial curve, poor fit]	
Cc1ccc(-n2ncc(C(=O)Nc3ccc4c(c3)OCO4)c2C2CCN(C(=O)OC(C)(C)C)CC2)c(C)c1	inactive	
O=C(OCCCc1cc2ccccc2c(=O)o1)c1ccccc1C(F)(F)F	inconclusive: 0.562 µM [inhibitor, full curve, poor fit]	
CC1CCC(C(C)C)C(OC(=O)Cn2c(-c3ccc(Br)cc3)[n+](C)c3ccccc32)C1 (centres undefined)	inconclusive: 11.2 µM [inhibitor, single point]	
S=c1[nH]cc(-c2ccc(Cl)cc2)n1-c1ccccc1	inconclusive: 7.08 µM [inhibitor, partial curve, poor fit]	
OCC1OC(n2cnc3c(/C=C(\O)c4ccccc4)ncnc32)C(O)C1O (centres undefined)	inconclusive: 1 µM [inhibitor, full curve, poor fit]	
Cc1ccc(NC(=O)NCC2CC2(Cl)Cl)cc1 (centres undefined)	inactive	
CN1CCN(C(=O)c2ccc(S(=O)(=O)N(C)c3ccccc3)cc2)CC1	inconclusive: 28.2 µM [inhibitor, single point]	
Cc1ccc(S(=O)(=O)Nc2cc3c(cc2C)n(C)c(=O)c(=O)n3C)c(C)c1	inactive	
C=C(C1=CCN(S(=O)C(C)(C)C)[C@H]1CCO)c1ccccc1 (some centres undefined)	inactive	
C[C@@]12C(=O)N(c3cccc(Br)c3)C(=O)N1[C@H](c1ccc(Cl)cc1)[C@@H]1C(=O)N(C3CCCCC3)C(=O)[C@@H]12	inconclusive: 28.2 µM [inhibitor, single point]	
COc1ccc([C@@H]2[C@@H]3C(=O)N(C(C)(C)C)C(=O)[C@@H]3[C@]3(C)C(=O)N(c4ccc(C)cc4)C(=O)N23)cc1	inconclusive: 6.31 µM [inhibitor, partial curve, poor fit]	
CCCN(CC(=O)Nc1ccccc1C)C(=O)c1cccc(S(=O)(=O)N2CCc3ccccc3C2)c1	inactive	
CC1=NN(c2ccc(Cl)c(C(=O)O)c2)C(=O)C1	inactive	
COc1ccc(-n2c(=O)c3ccccc3n(Cc3cccc(C)c3)c2=O)cc1OC	inconclusive: 28.2 µM [inhibitor, single point]	
Nc1ccc(-c2nc3c(Cl)c(N)ccc3[nH]2)cc1	inactive	
Cc1ccc(NC(=O)C(C)Sc2nc(-c3ccccc3)c(C#N)c(=O)[nH]2)c(C)c1 (centres undefined)	inactive	
CCn1c(=O)sc2cc(NS(=O)(=O)c3ccc(C)cc3)ccc21	inactive	
Cc1cc(NC(=O)CSc2nnc(Cc3ccccc3)o2)no1	inconclusive: 28.2 µM [inhibitor, single point]	
Nn1c(COc2ccc(Cl)cc2)nc2ccccc2c1=O		inactive: 4% [at 1.53 µM]
Cc1nc(N)nc(N)c1/C=C/C(C)(C)c1ccc(Cl)cc1	inconclusive: 11.2 µM [inhibitor, partial curve, poor fit]	
